From patent US20250382386A1 (KINTOR PHARMACEUTICAL GUANGDONG, published 2025)

How the values were obtained:
[1] = target: T1, VEGF165 (UniProt P15692-4 27-191); test: BLI (Octet RED96e), antibody on AHC sensor, 1:1 model
T1 construct: Bought; also called VEGF165 protein; VEGF-A antigen
T1 sequence (looked up): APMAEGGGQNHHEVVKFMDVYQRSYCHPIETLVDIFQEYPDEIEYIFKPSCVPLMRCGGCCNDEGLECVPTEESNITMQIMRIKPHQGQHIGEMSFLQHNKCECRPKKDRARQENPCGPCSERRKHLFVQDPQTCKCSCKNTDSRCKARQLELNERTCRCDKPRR

[2] = target: T2, human ALK-1 on cells (CHO-K1-hALK-1 cells; HUVEC; A172) (human, UniProt P37023 22-503); test: cell-based or functional assay
[3] = target: T2, human ALK-1 on cells (CHO-K1-hALK-1 …); test: flow cytometry on CHO-K1-hALK-1 cells, MFI; VEGF 165-biotin and APC-anti-human IgG mAb added after the antibody
[4] = target: T3, Human ALK-1/ACVRL1 Protein, His Tag (Acro AL1-H5227) (human, UniProt P37023 in part); test: BLI (Octet RED96e), antibody on ProteinA sensor, 1:1 model
T3 construct: range 22-118; Bought protein; also called ALK-1/His; ALK-1-his

[5] = target: T3, Human ALK-1/ACVRL1 Protein, His Tag …; test: BLI (Octet RED96e), antibody on AHC sensor, 1:1 model

- Kd [1]: 0.724 nM
- koff [1]: 0.000151 s⁻¹
- kon [1]: 209000 M⁻¹ s⁻¹
- IC50; blocking of BMP9-induced Smad1 phosphorylation, pSmad1 ELISA assay in A172 cell line (right panel), OD 450 [2]: 6.44 nM
- IC50; blocking of BMP9-induced Smad1 phosphorylation, pSmad1 ELISA assay in HUVEC (left panel), OD 450 [2]: 93.1 nM
- EC50 [3]: 1.16 nM
- Kd [4]: 4.89 nM
- koff [4]: 0.00219 s⁻¹
- kon [4]: 447000 M⁻¹ s⁻¹
- Kd [5]: 0.689 nM
- koff [5]: 0.000335 s⁻¹
- kon [5]: 486000 M⁻¹ s⁻¹
B1: BEV813 bsAb (anti-ALK-1-anti-VEGF bispecific antibody) (bispecific antibody, human IgG1, kappa)
heavy: EVQLVESGGGLVQPGGSLRLSCAASGYTFTNYGMNWVRQAPGKGLEWVGWINTYTGEPTYAADFKRRFTFSLDTSKSTAYLQMNSLRAEDTAVYYCAKYPHYYGSSHWYFDVWGQGTLVTVSSASTKGPSVFPLAPSSKSTSGGTAALGCLVKDYFPEPVTVSWNSGALTSGVHTFPAVLQSSGLYSLSSVVTVPSSSLGTQTYICNVNHKPSNTKVDKKV[here human IgG1 Fc with changes without letters]GGGGSGGGGSGGGGSGGGGSQVQLQESGPGLVKPSQTLSLTCTVSGGSISSGEYYWNWIRQHPGKCLEWIGYIYYSGSTYYNPSLKSRVTISVDTSKNQFSLKLSSVTAADTAVYYCARESVAGFDYWGQGTLVTVSSGGGGSGGGGSGGGGSGGGGSEIVLTQSPGTLSLSPGERATLSCRASQSVSSSYLAWYQQKPGQAPRLLIYGTSSRATGIPDRFSGSGSGTDFTLTISRLEPEDFAVYYCQAYGSWPITFGCGTRLEIK
light: DIQMTQSPSSLSASVGDRVTITCSASQDISNYLNWYQQKPGKAPKVLIYFTSSLHSGVPSRFSGSGSGTDFTLTISSLQPEDFATYYCQQYSTVPWTFGQGTKVEIKRTVAAPSVFIFPPSDEQLKSGTASVVCLLNNFYPREAKVQWKVDNALQSGNSQESVTEQDSKDSTYSLSSTLTLSKADYEKHKVYACEVTHQGLSSPVTKSFNRGEC
notes: also called ALK1-VEGF bispecific antibody BEV813

- Kd [4]: 7.37 nM
- koff [4]: 0.00299 s⁻¹
- kon [4]: 406000 M⁻¹ s⁻¹
B2: BEV813-7 (bispecific antibody, human IgG1, kappa)
heavy: EVQLVESGGGLVQPGGSLRLSCAASGYTFTNYGMNWVRQAPGKGLEWVGWINTYTGEPTYAADFKRRFTFSLDTSKSTAYLQMNSLRAEDTAVYYCAKYPHYYGSSHWYFDVWGQGTLVTVSSASTKGPSVFPLAPSSKSTSGGTAALGCLVKDYFPEPVTVSWNSGALTSGVHTFPAVLQSSGLYSLSSVVTVPSSSLGTQTYICNVNHKPSNTKVDKKV[here human IgG1 Fc with changes without letters]GGGGSGGGGSGGGGSGGGGSQVQLQESGPGLVKPSQTLSLTCTVSGGSISSGEYYWNWIRQHPGKGLEWIGYIYYSGSTYYNPSLKSRVTISVDTSKNQFSLKLSSVTAADTAVYYCARESVAGFCYWGQGTLVTVSSGGGGSGGGGSGGGGSGGGGSEIVLTQSPGTLSLSPGERATLSCRASQSVSSSYLAWYQQKPGQAPRCLIYGTSSRATGIPDRFSGSGSGTDFTLTISRLEPEDFAVYYCQAYGSWPITFGQGTRLEIK
light: B1 light

- Kd [4]: 3.81 nM
- koff [4]: 0.00245 s⁻¹
- kon [4]: 644000 M⁻¹ s⁻¹
B3: BEV813-9 (bispecific antibody, human IgG1, kappa)
heavy: EVQLVESGGGLVQPGGSLRLSCAASGYTFTNYGMNWVRQAPGKGLEWVGWINTYTGEPTYAADFKRRFTFSLDTSKSTAYLQMNSLRAEDTAVYYCAKYPHYYGSSHWYFDVWGQGTLVTVSSASTKGPSVFPLAPSSKSTSGGTAALGCLVKDYFPEPVTVSWNSGALTSGVHTFPAVLQSSGLYSLSSVVTVPSSSLGTQTYICNVNHKPSNTKVDKKV[here human IgG1 Fc with changes without letters]GGGGSGGGGSGGGGSGGGGSQVQLQESGPGLVKPSQTLSLTCTVSGGSISSGEYYWNWIRQHPGKGLEWIGYIYYSGSTYYNPSLKSRVTISVDTSKNQFSLKLSSVTAADTAVYYCARESVAGFDYCGQGTLVTVSSGGGGSGGGGSGGGGSGGGGSEIVLTQSPGTLSLSPGERATLSCRASQSVSSSYLAWYQQKPGQCPRLLIYGTSSRATGIPDRFSGSGSGTDFTLTISRLEPEDFAVYYCQAYGSWPITFGQGTRLEIK
light: B1 light
notes: also called mutant BEV813-9

- Kd [4]: 3.96 nM
- koff [4]: 0.00181 s⁻¹
- kon [4]: 456000 M⁻¹ s⁻¹
B4: BEV813-1 (bispecific antibody, human IgG1, kappa)
heavy: EVQLVESGGGLVQPGGSLRLSCAASGYTFTNYGMNWVRQAPGKGLEWVGWINTYTGEPTYAADFKRRFTFSLDTSKSTAYLQMNSLRAEDTAVYYCAKYPHYYGSSHWYFDVWGQGTLVTVSSASTKGPSVFPLAPSSKSTSGGTAALGCLVKDYFPEPVTVSWNSGALTSGVHTFPAVLQSSGLYSLSSVVTVPSSSLGTQTYICNVNHKPSNTKVDKKV[here human IgG1 Fc with changes without letters]GGGGSGGGGSGGGGSGGGGSQVQLQESGPGLVKPSQTLSLTCTVSGGSISSGEYYWNWIRQHPGCGLEWIGYIYYSGSTYYNPSLKSRVTISVDTSKNQFSLKLSSVTAADTAVYYCARESVAGFDYWGQGTLVTVSSGGGGSGGGGSGGGGSGGGGSEIVLTQSPGTLSLSPGERATLSCRASQSVSSSYLAWYQQKPGQAPRLLIYGTSSRATGIPDRFSGSGSGTDFTLTISRLEPEDFAVYYCQAYGSWPITFGCGTRLEIK
light: B1 light
notes: also called BEV813-1 mutant

- Kd [4]: 7.93 nM
- koff [4]: 0.00239 s⁻¹
- kon [4]: 301000 M⁻¹ s⁻¹
B5: BEV813-3 (bispecific antibody, human IgG1, kappa)
heavy: EVQLVESGGGLVQPGGSLRLSCAASGYTFTNYGMNWVRQAPGKGLEWVGWINTYTGEPTYAADFKRRFTFSLDTSKSTAYLQMNSLRAEDTAVYYCAKYPHYYGSSHWYFDVWGQGTLVTVSSASTKGPSVFPLAPSSKSTSGGTAALGCLVKDYFPEPVTVSWNSGALTSGVHTFPAVLQSSGLYSLSSVVTVPSSSLGTQTYICNVNHKPSNTKVDKKV[here human IgG1 Fc with changes without letters]GGGGSGGGGSGGGGSGGGGSQVQLQESGPGLVKPSQTLSLTCTVSGGSISSGEYYWNWIRQHPGKCLEWIGYIYYSGSTYYNPSLKSRVTISVDTSKNQFSLKLSSVTAADTAVYYCARESVAGFDYWGQGTLVTVSSGGGGSGGGGSGGGGSGGGGSEIVLTQSPGTLSLSPGERATLSCRASQSVSSSYLAWYQQKPGQAPRLLIYGTSSRATGIPDRFSGSGSGTDFTLTISRLEPEDFAVYYCQAYGSWPITFGQCTRLEIK
light: B1 light

- Kd [4]: 3.5 nM
- koff [4]: 0.00142 s⁻¹
- kon [4]: 404000 M⁻¹ s⁻¹
B6: BEV813-6 (bispecific antibody, human IgG1, kappa)
heavy: EVQLVESGGGLVQPGGSLRLSCAASGYTFTNYGMNWVRQAPGKGLEWVGWINTYTGEPTYAADFKRRFTFSLDTSKSTAYLQMNSLRAEDTAVYYCAKYPHYYGSSHWYFDVWGQGTLVTVSSASTKGPSVFPLAPSSKSTSGGTAALGCLVKDYFPEPVTVSWNSGALTSGVHTFPAVLQSSGLYSLSSVVTVPSSSLGTQTYICNVNHKPSNTKVDKKV[here human IgG1 Fc with changes without letters]GGGGSGGGGSGGGGSGGGGSQVQLQESGPGLVKPSQTLSLTCTVSGGSISSGEYYWNWIRQHPGKGLEWIGYIYYSGSTYYNPSLKSRVTISVDTSKNQFSLKLSSVTAADTAVYYCARESVAGFDYWGCGTLVTVSSGGGGSGGGGSGGGGSGGGGSEIVLTQSPGTLSLSPGERATLSCRASQSVSSSYLAWYQQKPGCAPRLLIYGTSSRATGIPDRFSGSGSGTDFTLTISRLEPEDFAVYYCQAYGSWPITFGQGTRLEIK
light: B1 light

- Kd [4]: 1.67 nM
- koff [4]: 0.0007 s⁻¹
- kon [4]: 418000 M⁻¹ s⁻¹
B7: BEV813-5 (bispecific antibody, human IgG1, kappa)
heavy: EVQLVESGGGLVQPGGSLRLSCAASGYTFTNYGMNWVRQAPGKGLEWVGWINTYTGEPTYAADFKRRFTFSLDTSKSTAYLQMNSLRAEDTAVYYCAKYPHYYGSSHWYFDVWGQGTLVTVSSASTKGPSVFPLAPSSKSTSGGTAALGCLVKDYFPEPVTVSWNSGALTSGVHTFPAVLQSSGLYSLSSVVTVPSSSLGTQTYICNVNHKPSNTKVDKKV[here human IgG1 Fc with changes without letters]GGGGSGGGGSGGGGSGGGGSQVQLQESGPGLVKPSQTLSLTCTVSGGSISSGEYYWNWIRQHPGKGLEWIGYIYYSGSTYYNPSLKSRVTISVDTSKNQFSLKLSSVTAADTAVYYCARESVAGFDYWGCGTLVTVSSGGGGSGGGGSGGGGSGGGGSEIVLTQSPGTLSLSPGERATLSCRASQSVSSSYLAWYQQKPGQCPRLLIYGTSSRATGIPDRFSGSGSGTDFTLTISRLEPEDFAVYYCQAYGSWPITFGQGTRLEIK
light: B1 light

- Kd [4]: 2.22 nM
- koff [4]: 0.00116 s⁻¹
- kon [4]: 524000 M⁻¹ s⁻¹
B8: BEV813-8 (bispecific antibody, human IgG1, kappa)
heavy: EVQLVESGGGLVQPGGSLRLSCAASGYTFTNYGMNWVRQAPGKGLEWVGWINTYTGEPTYAADFKRRFTFSLDTSKSTAYLQMNSLRAEDTAVYYCAKYPHYYGSSHWYFDVWGQGTLVTVSSASTKGPSVFPLAPSSKSTSGGTAALGCLVKDYFPEPVTVSWNSGALTSGVHTFPAVLQSSGLYSLSSVVTVPSSSLGTQTYICNVNHKPSNTKVDKKV[here human IgG1 Fc with changes without letters]GGGGSGGGGSGGGGSGGGGSQVQLQESGPGLVKPSQTLSLTCTVSGGSISSGEYYWNWIRQHPGKGLEWIGYIYYSGSTYYNPSLKSRVTISVDTSKNQFSLKLSSVTAADTAVYYCARESVAGCDYWGQGTLVTVSSGGGGSGGGGSGGGGSGGGGSEIVLTQSPGTLSLSPGERATLSCRASQSVSSSYLAWYQQKPGQAPRCLIYGTSSRATGIPDRFSGSGSGTDFTLTISRLEPEDFAVYYCQAYGSWPITFGQGTRLEIK
light: B1 light

Each block holds one binder with its values, some of them ahead of it.
